Experimental data as given in PubChem BioAssay AID1347430 (National Center for Advancing Translational Sciences (NCATS), 2020).
In all, about 91,000 compounds went through this assay and about 130 (0.14%) were called active. The inconclusive results got no clear call from the source; some entries with a clear call stand among them for comparison. The call rests on the fitted dose curve; in most records, active means well fitted inhibition curve with a large enough effect; inconclusive means small, poorly fitted or top-dose-only effect; inactive means flat fitted curve, though single readings scatter. A potency beside an inconclusive call is a rough fit, not a confirmed value.

Each compound was assayed on Uracil-DNA glycosylase (assay: Primary qHTS assay for inhibitors of Activation Induced Cytidine Deaminase (AID): UDG Counterscreen signal). Conditions: FRET deamination/UDG coupled assay, UDG read, 4 h; series mostly up to 115 µM.
Further: nearly all actives have a fitted effect of over 65% in size.
Potency means the concentration at half of the fitted maximal effect; tags describe the fitted curve by direction and shape.

Row | Compound | Potency
1 | CCOC(=O)c1c(NC(=O)C2c3ccccc3Oc3ccccc32)sc(C)c1C | inconclusive: 35.5 µM [inhibitor, partial curve, poor fit]
2 | Cc1cc(=O)oc2c(C)c(OCc3nc(-c4ccc(Cl)cc4)no3)ccc12 | inactive
3 | Cc1ccc(-n2c(Cc3ccccc3)nnc2SCc2nc(-c3cccs3)no2)cc1C | inconclusive: 56.2 µM [inhibitor, partial curve, poor fit]
4 | Cc1ccc(CNC(=O)C(=O)NCC(c2ccco2)S(=O)(=O)c2ccccc2)cc1 (centres undefined) | inconclusive: 89.1 µM [inhibitor, single point]
5 | CCCCN1CC(c2nc3ccccc3n2CCCCOc2cccc(C)c2C)CC1=O (centres undefined) | inconclusive: 89.1 µM [inhibitor, partial curve]
6 | Cc1cc(-n2c(C)nc3ccccc3c2=O)ccc1NC(=O)c1ccccc1[N+](=O)[O-] | inactive
7 | CCOc1ccccc1NC(=O)c1c(NC(=O)COc2ccccc2)sc2c1CCCC2 | inactive
8 | Cc1c(Cl)cccc1-n1ncc(C(=O)N2CCN(c3ncccn3)CC2)c1C1CCN(C(=O)OC(C)(C)C)CC1 | inactive
9 | O=S(=O)(c1ccc(-c2nc3ccccc3s2)cc1)N1CCCCCC1 | inconclusive: 89.1 µM [inhibitor, single point]
10 | CCN(C(=O)Cn1c(C(=O)OC)cc2oc3ccccc3c21)c1cccc(C)c1 | inconclusive: 100 µM [inhibitor, single point]
11 | COc1cc(NC(=O)Cn2c(=O)n(Cc3ccccc3OC)c(=O)c3cccnc32)cc(OC)c1 | inconclusive: 89.1 µM [inhibitor, partial curve, poor fit]
12 | Brc1ccccc1-c1nc2cc3c(cc2[nH]1)OCCO3 | inactive
13 | COc1ccc(/C=C/C(=O)c2ccc(C)cc2)cc1 | inactive
14 | CCn1c(C(=O)N2CCC(C(=O)N3CCN(c4cccc(C)c4C)CC3)CC2)cc2sccc21 | inconclusive: 70.8 µM [inhibitor, partial curve]
15 | c1ccc(CNc2nc3ccccc3c3nc(-c4ccccc4)nn23)cc1 | inconclusive: 100 µM [inhibitor, single point]
16 | COc1ccc(OCCn2c(C3CC(=O)N(c4ccc(F)cc4)C3)nc3ccccc32)cc1 (centres undefined) | inactive
17 | O=C(Nc1nn[nH]n1)c1cccc(S(=O)(=O)N2CCCCCC2)c1 | inconclusive: 63.1 µM [inhibitor, single point]
18 | CCOc1ccccc1NC(=O)CSc1nc2ccccc2c2nc(CCn3cncc3C)nn12 | inactive
19 | COc1ccc(CNC(=O)Cn2c(SCC(=O)N(C)c3ccccc3)nc3ccccc32)cc1 | inconclusive: 100 µM [inhibitor, single point]
20 | COc1ccccc1CNC(=O)C(=O)NCC(c1cccs1)S(=O)(=O)c1ccc(F)cc1 (centres undefined) | inconclusive: 89.1 µM [inhibitor, single point]
21 | COc1ccc(-c2c3c(=O)n(C)c(=O)n(C)c3c3n2-c2ccccc2NC3c2ccccc2OC)cc1 (centres undefined) | active: 79.4 µM
22 | Cc1nn(-c2ccccc2)c2c1N(CCCC(=O)NCc1ccc(OC(C)C)cc1)C(=O)CS2 | inconclusive: 79.4 µM [inhibitor, partial curve]

Row | Compound | Potency
23 | CCCCOC(=O)c1ccc(NC(=O)C2(c3cccs3)CCOCC2)cc1 | inconclusive: 89.1 µM [inhibitor, single point]
24 | COc1ccc(C(CNC(=O)COc2cc(C)c(Cl)c(C)c2)N2CCCCC2)cc1 (centres undefined) | inconclusive: 28.2 µM [inhibitor, partial curve, poor fit]
25 | OCCN1CCN(CCCN2c3ccccc3Sc3ccc(Cl)cc32)CC1 | inactive
26 | Clc1ccc(C=Nc2ccc(Nc3ccccc3)cc2)c(Cl)c1 | inactive
27 | COCc1cccc(C(=O)NCc2ccc(C(=O)OC)cc2)c1 | inactive
28 | CCCN(CC)c1ccc(/C=N/NC(=S)Nc2ccc(CC)cc2)cc1 | inactive
29 | COc1cccc(CNC(=O)C(=O)NCC(c2cccs2)S(=O)(=O)c2cccs2)c1 (centres undefined) | inconclusive: 89.1 µM [inhibitor, single point]
30 | CCCCN(CCCC)S(=O)(=O)c1ccc(NC(=O)c2c(-c3ccccc3)noc2C)cc1 | inconclusive: 89.1 µM [inhibitor, partial curve, poor fit]
31 | Cn1c(NCc2ccccc2F)nc2ccccc21 | inconclusive: 100 µM [inhibitor, single point]
32 | CNc1oc(/C=C/c2ccc(OC)c(OC)c2)nc1C#N | inactive
33 | N=c1n(CCO)c2ccccc2n1CCOc1ccc(F)cc1 | inactive
34 | CC(=O)c1cccc(-n2c(CCC(=O)O)ccc2-c2ccccc2)c1 | inconclusive: 100 µM [inhibitor, single point]
35 | Cc1ccc(-n2ncc3c(Nc4ccc5c(c4)OCCO5)ncnc32)cc1C | inconclusive: 31.6 µM [inhibitor, partial curve, poor fit]
36 | CN(CC(=O)Nc1nccs1)S(=O)(=O)c1ccc(Br)cc1 | inconclusive: 79.4 µM [inhibitor, single point]
37 | CC(C)NS(=O)(=O)c1ccc(OCC(=O)N2CCN(c3cccc(Cl)c3)CC2)cc1 | inconclusive: 89.1 µM [inhibitor, single point]
38 | CCc1ccc(S(=O)(=O)c2nnn3c2nc(N2CCN(CC)CC2)c2sccc23)cc1 | inconclusive: 89.1 µM [inhibitor, single point]
39 | O=C(C1CCCN(S(=O)(=O)c2cccs2)C1)N1CCN(c2ccccc2F)CC1 (centres undefined) | inconclusive: 79.4 µM [inhibitor, partial curve, poor fit]
40 | CCOc1ccc(S(=O)(=O)/C=C2\NCCc3cc(OC)c(OC)cc32)cc1 | inactive
41 | CN(C)c1cccc(Nc2nc3ccccc3nc2NS(=O)(=O)c2cccs2)c1 | inconclusive: 89.1 µM [inhibitor, single point]
42 | COc1ccccc1CNc1ncnc2onc(-c3ccc(Cl)cc3)c12 | inactive
43 | Cc1ccc(N(CC(=O)N2CCC(C(N)=O)CC2)S(=O)(=O)c2ccc(Cl)cc2)cc1C | inactive
44 | CC(=O)N1c2ccc(S(=O)(=O)NCC3CCC(C(=O)Nc4cccc(F)c4)CC3)cc2CC1C (centres undefined) | inactive
